# From paper PMC4336329 (PLoS ONE, 2015)
# About 2,200 (0.71%) of roughly 310,000 compounds showed an effect of 50% or more. The effect is printed as a negative number. Some of the results follow.
# Biological target: human ether-à-go-go-related gene (hERG) potassium channel (human, UniProt Q12809)
# Assay: primary screen, population patch clamp on CHO cells stably expressing hERG
# Sequence of human ether-à-go-go-related gene (hERG) potassium channel (Q12809 whole entry, looked up): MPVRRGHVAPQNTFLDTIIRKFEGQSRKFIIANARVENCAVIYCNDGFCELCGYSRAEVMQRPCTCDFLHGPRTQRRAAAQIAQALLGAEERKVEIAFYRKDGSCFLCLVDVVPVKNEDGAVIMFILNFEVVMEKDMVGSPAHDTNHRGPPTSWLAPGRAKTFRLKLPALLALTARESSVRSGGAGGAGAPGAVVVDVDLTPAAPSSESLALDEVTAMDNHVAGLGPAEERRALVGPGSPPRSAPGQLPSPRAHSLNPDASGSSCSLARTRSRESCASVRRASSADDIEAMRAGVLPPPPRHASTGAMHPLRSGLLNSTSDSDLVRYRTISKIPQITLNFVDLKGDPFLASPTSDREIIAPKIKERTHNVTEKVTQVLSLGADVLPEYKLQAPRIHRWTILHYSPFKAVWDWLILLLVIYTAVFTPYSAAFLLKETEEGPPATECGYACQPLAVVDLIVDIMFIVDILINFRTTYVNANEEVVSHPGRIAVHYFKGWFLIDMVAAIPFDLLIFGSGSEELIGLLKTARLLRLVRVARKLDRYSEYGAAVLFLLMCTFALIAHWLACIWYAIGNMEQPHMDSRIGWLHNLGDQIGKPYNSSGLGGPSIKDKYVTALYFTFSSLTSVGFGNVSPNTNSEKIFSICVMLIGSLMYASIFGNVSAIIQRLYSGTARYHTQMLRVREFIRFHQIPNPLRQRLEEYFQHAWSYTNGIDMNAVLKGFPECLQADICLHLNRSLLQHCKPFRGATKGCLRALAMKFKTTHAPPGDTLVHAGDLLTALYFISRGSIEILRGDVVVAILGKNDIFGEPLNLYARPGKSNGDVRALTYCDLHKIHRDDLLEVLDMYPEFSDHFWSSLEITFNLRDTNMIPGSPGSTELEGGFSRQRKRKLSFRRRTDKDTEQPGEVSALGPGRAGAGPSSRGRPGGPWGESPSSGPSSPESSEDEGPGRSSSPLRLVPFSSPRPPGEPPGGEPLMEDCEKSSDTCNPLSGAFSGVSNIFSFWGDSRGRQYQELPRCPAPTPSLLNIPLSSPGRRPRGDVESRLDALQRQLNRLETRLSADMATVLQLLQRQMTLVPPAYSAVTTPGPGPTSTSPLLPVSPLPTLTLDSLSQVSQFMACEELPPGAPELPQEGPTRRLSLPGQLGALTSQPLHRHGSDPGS
row,Structure (SMILES),"hERG current change (%, negative = inhibition) at 1uM"
1,COc1cc2c(cc1OC)C(c1ccc([N+](=O)[O-])cc1)N(C(C)=O)CC2 (stereo not shown),5.11%
2,Cn1ccnc1SCC(=O)Nc1ccc(Oc2ccccc2)cc1,11.3%
3,O=C(NCC(c1ccco1)N1CCN(c2ccccc2F)CC1)c1cccs1 (stereo not shown),7.63%
4,CC(=O)c1ccc(O)c(CO)c1,3.8%
5,O=C(CN1CCCCCC1)Nc1ccc(Br)cc1,-15.2%
6,O=S(=O)(c1ccc(-c2nnc(SCc3nnc(-c4ccccc4)o3)o2)cc1)N1CCCC1,4.95%
7,Cc1cc(=O)c2ccccc2n1Cc1ccccc1,5.61%
8,Cc1ccc(CSc2nc3nc(C)cc(C)n3n2)cc1,13.5%
9,C/C(Cc1ccccc1)=N\NC(=O)CNC(=O)c1ccc(Cl)cc1Cl,-24.7%
10,O=C(Nc1ccc(Oc2cccc(C(F)(F)F)c2)nc1)c1ccco1,11.7%
11,O=C1CC2(CCN(C(=O)c3ccccc3Cl)CC2)Oc2ccccc21,-27.6%
12,Cc1cc[n+](Cc2ccccc2)cc1.[O-][Cl+3]([O-])([O-])[O-],12.8%
13,CCOC(=O)N1CCN(C(=O)c2ccc(Cl)c(S(=O)(=O)N3CCCC3)c2)CC1,4.18%
14,CCOC(=O)c1nn(-c2ccc(C)cc2)c(=O)cc1OCC(=O)Nc1cc(C)ccc1OC,6.86%
15,CCC(C(=O)N1CCCC1)n1nc(C)c2c(C)n(-c3ccccc3)nc2c1=O (stereo not shown),1.63%
16,CC(NC(=O)c1ccc(N2CCCC2=O)cc1)c1ccccc1 (stereo not shown),-0.663%
17,Cc1cccn2c(=O)c3cc(C(=O)NCCc4ccccc4)c(=N)n(Cc4ccco4)c3nc12,-35.5%
18,COc1ccc(C(=O)CSc2ncnc3nc[nH]c23)cc1,7.53%
19,COc1ccc(CNC(=O)C2CCC(=O)N(CC3CCCCC3)C2)cc1 (stereo not shown),11.9%
20,CCC(C)NC(=O)C1(NC(=O)Nc2ccccc2)CCCCC1 (stereo not shown),15.9%
21,CCN(CC)C(=O)COc1coc(CN2CCN(c3ccccc3F)CC2)cc1=O,9.54%
22,Cc1ccc(N(CC(=O)NC2CCCCCC2)S(=O)(=O)c2c(C)nn(C)c2C)cc1,-18.3%
23,O=C(NCCCN1CCOCC1)c1cc(Cl)ccc1OCc1ccccc1,-4.87%
24,CCN(CC)S(=O)(=O)c1ccc(C)c(NC(=S)NNC(=O)C2CC2)c1,9.43%
25,COC(=O)c1c(NC(=O)CN2CCN(c3ccccc3)CC2)c2c(C)cccc2n1C,1.02%
